# Test results taken from the supplement of paper PMC4604168 (melanoma cell lines).
# Some of the results follow. Most values come without repeats; read them as rough.
# System: A2058
# Test: cell count relative to DMSO control; melanoma cells; higher = more viable cells
# Conditions: library dose: low library concentration; 72 h
# 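Also: cell number obtained by counting DAPI-stained nuclei in high-throughput microscope images with image analysis software, screen run in 1,536-well plates.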
row,Structure (SMILES),cell count [%]
1,"O=S(=O)(c1ccccc1)N(CC(F)(F)F)c1ccc(C(O)(C(F)(F)F)C(F)(F)F)cc1 + O=c1cc(-c2cccc3c2Sc2ccccc2S3)oc(N2CCOCC2)c1 [KU55933] (first compound 1.4 µM, partner dose 1 µM)",97.2
2,"O=S(=O)(c1ccccc1)N(CC(F)(F)F)c1ccc(C(O)(C(F)(F)F)C(F)(F)F)cc1 + Oc1nc(-c2ccc(C(F)(F)F)cc2)nc2c1CSCC2 [XAV939] (first compound 1.4 µM, partner dose 2 µM)",88.3
3,"COc1ccc2c(c1)CCC1C2CCC2(C)C(NCCCCCCN3C(=O)C=CC3=O)CCC12 (stereo unspecified) + Cn1cc(/C=C2\C(=O)Nc3cccnc32)c2ccccc21 [GW441756] (first compound 0.4 µM, partner dose 0.4 µM)",96.1
4,"COc1ccc(COc2ccc(Cc3cnc(N)nc3N)cc2OC)cc1 + O=S(=O)(c1ccccc1)N(CC(F)(F)F)c1ccc(C(O)(C(F)(F)F)C(F)(F)F)cc1 [T0901317] (first compound 1 µM, partner dose 1.4 µM)",94.6
5,"Cc1cc([N+](=O)[O-])ccc1NS(=O)(=O)c1cc(Cl)ccc1Cl + c1cc(-c2cnn3cc(-c4ccc(OCCN5CCCCC5)cc4)cnc23)ccn1 [Dorsomorphin] (first compound 1 µM, partner dose 0.4 µM)",87.7
6,"Oc1nc(-c2ccc(C(F)(F)F)cc2)nc2c1CSCC2 + CC(C)CCN1c2nc(Nc3cc(F)c(O)c(F)c3)ncc2N(C)C(=O)C1C [BID1870] (first compound 2 µM, partner dose 0.2 µM)",76.6
7,"O=S(=O)(c1ccccc1)N(CC(F)(F)F)c1ccc(C(O)(C(F)(F)F)C(F)(F)F)cc1 + COc1cc(N2CCC(N3CCN(C)CC3)CC2)ccc1Nc1ncc(Cl)c(Nc2ccccc2S(=O)(=O)C(C)C)n1 [NVP-TAE684] (first compound 1.4 µM, partner dose 0.08 µM)",106
8,"Oc1nc(-c2ccc(C(F)(F)F)cc2)nc2c1CSCC2 + c1cc(-c2cnn3cc(-c4ccc(OCCN5CCCCC5)cc4)cnc23)ccn1 [Dorsomorphin] (first compound 2 µM, partner dose 0.4 µM)",93.1
9,"COc1ccc(-c2ccc3c(N4CCOCC4)nc(N4C[C@@H](C)O[C@@H](C)C4)nc3n2)cc1CO + Oc1cc(-c2nc(-c3ccccc3)[nH]c2-c2ccncc2)ccc1Cl [L779450] (first compound 0.02 µM, partner dose 0.2 µM)",106
10,"CCN(CC)CCCCNc1ncc2cc(-c3cc(OC)cc(OC)c3)c(NC(=O)NC(C)(C)C)nc2n1 + Cc1cc([N+](=O)[O-])ccc1NS(=O)(=O)c1cc(Cl)ccc1Cl [FH535] (first compound 0.1 µM, partner dose 1 µM)",93.1
11,"O=C(O)C(=O)Nc1sc2c(c1C(=O)O)CCNC2 + c1cc(-c2cnn3cc(-c4ccc(OCCN5CCCCC5)cc4)cnc23)ccn1 [Dorsomorphin] (first compound 1.66667 µM, partner dose 0.4 µM)",103
12,"O=S(=O)(c1ccccc1)N(CC(F)(F)F)c1ccc(C(O)(C(F)(F)F)C(F)(F)F)cc1 + CCCCCCCCCCCC1=C(O)C(=O)C=C(O)C1=O [Embelin] (first compound 1.4 µM, partner dose 1.2 µM)",110
13,"COC(=O)c1sccc1S(=O)(=O)Nc1ccc(Nc2ccccc2)cc1OC + O=S(=O)(c1ccccc1)N(CC(F)(F)F)c1ccc(C(O)(C(F)(F)F)C(F)(F)F)cc1 [T0901317] (first compound 1 µM, partner dose 1.4 µM)",106
14,"COc1ccc2c(c1)CCC1C2CCC2(C)C(NCCCCCCN3C(=O)C=CC3=O)CCC12 (stereo unspecified) + Oc1nc(-c2ccc(C(F)(F)F)cc2)nc2c1CSCC2 [XAV939] (first compound 0.4 µM, partner dose 2 µM)",97.7
15,"COc1ccc2c(c1)CCC1C2CCC2(C)C(NCCCCCCN3C(=O)C=CC3=O)CCC12 (stereo unspecified) + O=c1cc(-c2cccc3c2Sc2ccccc2S3)oc(N2CCOCC2)c1 [KU55933] (first compound 0.4 µM, partner dose 1 µM)",96.4
16,"CCN(CC)CCCCNc1ncc2cc(-c3cc(OC)cc(OC)c3)c(NC(=O)NC(C)(C)C)nc2n1 + CC(C)CCN1c2nc(Nc3cc(F)c(O)c(F)c3)ncc2N(C)C(=O)C1C [BID1870] (first compound 0.1 µM, partner dose 0.2 µM)",107
